The list shows a part of the results. Interaction screen of human proteins with wild-type SARS-CoV-2 proteins by split-DHFR complementation in yeast, 1 µg/mL methotrexate. Value = fitness of the pair (three or more lineages) minus that of the viral protein without a human partner, on a scale set by negative (0) and fused positive (1) controls, mean of up to three cultures; higher = more likely to interact. Active = false discovery rate below 0.05 (one-sided t-test) in at least one culture. Nearly all pairs are not hits, and differences among them are mostly noise (correlation between cultures about 0.3); most hits were seen in one culture only. Human sequences are the Swiss-Prot entries looked up by gene name; the clone may be another isoform. NSP2 values were corrected by the authors for a growth advantage. Listed are human proteins with a hit and a random twelfth of the others.
Legend:
Assay in all cases: yeast fitness gain over the viral ORF with no human partner (scaled fitness); higher = more likely to interact
[1] = biological target: SARS-CoV-2 E
Procedure: (§1)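 Split mouse DHFR complementation in pooled diploid yeast: human ORFeome clones carry one fragment and viral ORFs the other; barcoded lineages compete in 1 µg/mL methotrexate and fitness is read by barcode sequencing in up to three cultures.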

[2] = biological target: SARS-CoV-2 M
Procedure: as §1

[3] = biological target: SARS-CoV-2 N
Procedure: as §1

[4] = biological target: SARS-CoV-2 NSP1
Procedure: as §1

[5] = biological target: SARS-CoV-2 NSP10
Procedure: as §1

[6] = biological target: SARS-CoV-2 NSP12
Procedure: as §1

[7] = biological target: SARS-CoV-2 NSP13
Procedure: as §1

[8] = biological target: SARS-CoV-2 NSP14
Procedure: as §1

[9] = biological target: SARS-CoV-2 NSP15
Procedure: as §1

[10] = biological target: SARS-CoV-2 NSP16
Procedure: as §1

[11] = biological target: SARS-CoV-2 NSP2
Procedure: as §1

[12] = biological target: SARS-CoV-2 NSP4
Procedure: as §1

[13] = biological target: SARS-CoV-2 NSP5
Procedure: as §1

[14] = biological target: SARS-CoV-2 NSP6
Procedure: as §1

[15] = biological target: SARS-CoV-2 NSP7
Procedure: as §1

[16] = biological target: SARS-CoV-2 NSP8
Procedure: as §1

[17] = biological target: SARS-CoV-2 NSP9
Procedure: as §1

[18] = biological target: SARS-CoV-2 ORF10
Procedure: as §1

[19] = biological target: SARS-CoV-2 ORF3A
Procedure: as §1

[20] = biological target: SARS-CoV-2 ORF3B
Procedure: as §1

[21] = biological target: SARS-CoV-2 ORF6
Procedure: as §1

[22] = biological target: SARS-CoV-2 ORF7A
Procedure: as §1

[23] = biological target: SARS-CoV-2 ORF7B
Procedure: as §1

[24] = biological target: SARS-CoV-2 ORF8
Procedure: as §1

[25] = biological target: SARS-CoV-2 ORF9B
Procedure: as §1

[26] = biological target: SARS-CoV-2 ORF9Bwu (the 73-codon ORF)
Procedure: as §1

[27] = biological target: SARS-CoV-2 S
Procedure: as §1

Measured: yeast fitness gain

B1: ATAD3B, Q5T9A4 (protein)
chain: MSWLFGVNKGPKGEGAGPPPPLPPAQPGAEGGGDRGLGDRPAPKDKWSNFDPTGLERAAKAARELEHSRYAKEALNLAQMQEQTLQLEQQSKLKEYEAAVEQLKSEQIRAQAEERRKTLSEETRQHQARAQYQDKLARQRYEDQLKQQQLLNEENLRKQEESVQKQEAMRRATVEREMELRHKNEMLRVETEARARAKAERENADIIREQIRLKASEHRQTVLESIRTAGTLFGEGFRAFVTDRDKVTATVAGLTLLAVGVYSAKNATAVTGRFIEARLGKPSLVRETSRITVLEALRHPIQVSRRLLSRPQDVLEGVVLSPSLEARVRDIAIATRNTKKNRGLYRHILLYGPPGTGKTLFAKKLALHSGMDYAIMTGGDVAPMGREGVTAMHKLFDWANTSRRGLLLFMDEADAFLRKRATEEISKDLRATLNAFLYHMGQHSNKFMLVLASNLPEQFDCAINSRIDVMVHFDLPQQEERERLVRLHFDNCVLKPATEGKRRLKLAQFDYGRKCSEVARLTEGMSGREIAQLAVSWQATAYASKDGVLTEAMMDACVQDAVQQYRQKMRWLKAEGPGRGVEHPLSGVQGETLTSWSLATDPSYPCLAGPCTFRICSWMGTGLCPGPLSPRMSCGGGRPFCPPGHPLL
inactive: [1] 0.0201 | [2] 0.00447 | [3] 0.111 | [4] 0.028 | [5] -0.0145 | [6] 0.0274 | [7] 0.0236 | [8] -0.0413 | [9] 0.0193 | [10] 0.00309 | [11] -0.14 | [12] 0.0358 | [13] 0.00764 | [14] 0.0143 | [15] 0.0556 | [16] 0.000838 | [17] 0.0669 | [18] -0.0155 | [19] -0.0161 | [20] 0.031 | [21] 0.00895 | [22] 0.0344 | [23] 0.0143 | [24] 0.037 | [25] -0.00571 | [26] 0.00528 | [27] 0.00974

B2: IGHD, P01880 (protein)
chain: APTKAPDVFPIISGCRHPKDNSPVVLACLITGYHPTSVTVTWYMGTQSQPQRTFPEIQRRDSYYMTSSQLSTPLQQWRQGEYKCVVQHTASKSKKEIFRWPESPKAQASSVPTAQPQAEGSLAKATTAPATTRNTGRGGEEKKKEKEKEEQEERETKTPECPSHTQPLGVYLLTPAVQDLWLRDKATFTCFVVGSDLKDAHLTWEVAGKVPTGGVEEGLLERHSNGSQSQHSRLTLPRSLWNAGTSVTCTLNHPSLPPQRLMALREPAAQAPVKLSLNLLASSDPPEAASWLLCEVSGFSPPNILLMWLEDQREVNTSGFAPARPPPQPRSTTFWAWSVLRVPAPPSPQPATYTCVVSHEDSRTLLNASRSLEVSYLAMTPLIPQSKDENSDDYTTFDDVGSLWTTLSTFVALFILTLLYSGIVTFIKVK
inactive: [1] 0.0232 | [2] -0.0536 | [3] -0.0246 | [4] 0.00844 | [5] -0.0579 | [6] 0.0607 | [7] 0.0548 | [8] -0.0228 | [9] 0.0375 | [10] 0.0666 | [11] -0.0648 | [12] -0.192 | [13] -0.0223 | [14] 0.0042 | [15] -0.00723 | [16] -0.0128 | [17] 0.0329 | [18] 0.0194 | [19] 0.0692 | [20] 0.0842 | [21] 0.0486 | [22] 0.0609 | [23] 0.00603 | [24] 0.0116 | [25] 0.00602 | [26] 0.0436 | [27] 0.0866

B3: NANOS3, P60323 (protein)
chain: MGTFDLWTDYLGLAHLVRALSGKEGPETRLSPQPEPEPMLEPDQKRSLESSPAPERLCSFCKHNGESRAIYQSHVLKDEAGRVLCPILRDYVCPQCGATRERAHTRRFCPLTGQGYTSVYSHTTRNSAGKKLVRPDKAKTQDTGHRRGGGGGAGFRGAGKSEPSPSCSPSMST
inactive: [1] 0.0768 | [2] 0.0613 | [3] 0.0953 | [4] 0.0734 | [5] -0.00507 | [6] 0.124 | [7] -0.101 | [9] -0.148 | [10] 0.0635 | [11] -0.181 | [12] -0.367 | [13] -0.0338 | [14] 0.0513 | [15] -0.183 | [16] 0.0095 | [17] -0.00822 | [18] -0.0306 | [19] -0.0139 | [20] 0.00874 | [21] 0.00464 | [22] 0.0255 | [23] -0.0253 | [24] 0.0497 | [25] -0.00863 | [26] -0.137 | [27] -0.0945

From the supplement of paper PMC11741623
